# From PubChem BioAssay AID1345083 (National Center for Advancing Translational Sciences (NCATS), 2018)
# Hit rate of the full screen: of about 94,000 compounds, about 6,200 (6.6%) were called active. Inconclusive results, whose numbers are uncertain, are shown with a selection of clear calls. The call rests on the fitted dose curve; in most records, active means well fitted inhibition curve with a large enough effect; inconclusive means small, poorly fitted or top-dose-only effect; inactive means flat fitted curve, though single readings scatter. Potencies of inconclusive entries are doubtful fits and often do not repeat.
# Experiment: Cytotoxic Profiling in HEK 293 Cell Line of Diverse Libraries Using Quantitative High-Throughput Screening; further: nearly all actives have a fitted effect of over 60% in size
# Details: HEK 293 viability, ATP luminescence (CellTiter-Glo), 48-72 h; activity change, negative = cytotoxicity: at 115 µM (top of the series) unless noted; series mostly up to 115 µM
# How it was run: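 Read-out: CellTiter-Glo ATP luminescence. Cells: HEK 293, 250 cells/well. Exposure: 48 or 72 hr, 37 degree Celsius.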
# On the % scale 0 is the no-effect control and ±100 the full control effect; potency means the concentration at half of the fitted maximal effect; tags describe the fitted curve by direction and shape.
SMILES,"activity change, negative = cytotoxicity",Potency,outcome
COc1ccc(-c2noc([C@@H](C)NC(=O)c3cc(C)oc3C)c2C(=O)O)cc1,inactive: 4.53% [at 172 µM],,
Cc1nnc2ccc(N3CCC(NC(=O)C4CCCC4)CC3)nn12,,"inconclusive: 56.2 µM [inhibitor, partial curve, poor fit]",
C[C@]1(CO)C2CC[C@@H](O)[C@@H](CC(=O)NCc3cccs3)[C@]2(C)CC[C@H]1OC(=O)Nc1cccc(F)c1 (stereo partly drawn),,"inconclusive: 50.1 µM [inhibitor, partial curve, poor fit]",
Cc1cccc(-n2nc(-c3c(C)nc4scc(CC(=O)NCCC(C)C)n4c3=O)cc2C)c1C,,"inconclusive: 39.8 µM [inhibitor, full curve, poor fit]",
O=C1CCN(CC(O)Cc2ccccc2)c2ccccc2CCN1Cc1ccccc1 (stereo not drawn),,"inconclusive: 31.6 µM [inhibitor, partial curve, poor fit]",
Cc1oc(-c2ccc(NC(=O)Cc3ccccc3)cc2)nc1CNC(=O)c1ccc(-c2ccco2)cc1,,"inconclusive: 89.1 µM [inhibitor, single point]",
CCOCCCNc1ncnc2c1CN(C1CCCNC1)C(=O)CN2C (stereo not drawn),inactive: 0.0595%,,
CC(C)c1cccc(NC(=O)CN2C(=O)NC(c3ccccc3Cl)C3=C2COC3=O)c1 (stereo not drawn),,active: 39.8 µM,
O=C(c1cccc2[nH]ccc12)N1CCC2(CC1)CN(c1ncccn1)CC2CO (stereo not drawn),inactive: -10.7%,,
CC#CCn1cc2c3c(cccc31)[C@H](CC(C)C)N[C@H](C(=O)N1CCN(C)CC1)C2,,"inconclusive: 89.1 µM [inhibitor, partial curve, poor fit]",
CC(C)Nc1ncc(C(=O)NC2CCCN(CCc3ccccc3)C2)cn1 (stereo not drawn),,,inactive
CNC(=O)[C@H]1CN(C(=O)c2cc(C)oc2C)[C@]2(C)C(=O)N(CC3CC3)c3ccccc3[C@H]12,inactive: -7.93% [at 57.5 µM],,
COc1ccccc1NC(=O)c1cnc(-c2ccc(F)cc2)nc1-c1ccncc1,inactive: 0.768%,,
COc1ccc(Cn2c(=O)c(C(=O)NCc3ccc4c(c3)OCO4)nc3cccnc32)cc1,,"inconclusive: 79.4 µM [inhibitor, partial curve, poor fit]",
CCn1c(Cn2ccnc2)nnc1C1CCN(C(=O)C(C)(C)OC)CC1,inactive: -0.0129%,,
CC1=C[C@@H](CNC(=O)CCC(=O)O)[C@H](C(C)C)C[C@H]1CC(=O)N(C)Cc1ccccc1,inactive: -7.09% [at 172 µM],,
CN1C(=O)c2cccn2CC1C(=O)NC1CCN(Cc2ccccc2)CC1 (stereo not drawn),inactive: -2.33%,,
Cc1nnc2ccc(N3CCN(C(=O)c4ccccn4)CC3)nn12,inactive: -8.02% [at 172 µM],,
Cc1ccccc1C(=O)NC1CCN(c2cc(-c3ccc(Cl)cc3)[nH]n2)C1 (stereo not drawn),,"inconclusive: 50.1 µM [inhibitor, partial curve, poor fit]",
C[S+](=O)([O-])CCn1ncc2cc(OCC3CCN(CCC(F)(F)F)CC3)ccc21,,"inconclusive: 89.1 µM [inhibitor, partial curve, poor fit]",
COc1ccc(CN2C=C(C(=O)OCc3nc(-c4ccccc4)no3)C(C)=NS2(=O)=O)cc1,,"inconclusive: 31.6 µM [inhibitor, full curve, poor fit]",

SMILES,"activity change, negative = cytotoxicity",Potency,outcome
O=C(c1ccn(C(F)F)n1)N1CCc2nc(-c3ccc(Cl)cc3)[nH]c2C1,,active: 89.1 µM,
COCCNc1ncccc1-c1noc([C@@H]2CCCN2Cc2cc(OC)c(OC)c(OC)c2)n1,,"inconclusive: 31.6 µM [inhibitor, partial curve, poor fit]",
CCn1ccc(C(=O)N2CCN(C(=O)N3CC4CC(C3)[C@H]3CCCC(=O)N3C4)CC2)n1 (stereo partly drawn),inactive: -5.36%,,
COc1ccc(-c2nnc3n2CCN(C(=O)NC2CCCC2)C3)cc1,inactive: -21.8% [at 172 µM],,
CN1CCN(c2ccc3ncc(Nc4ccccc4F)n3n2)CC1,,active: 112 µM,
O=C(NC1CCN(c2cc(-c3cccs3)[nH]n2)C1)c1cccs1 (stereo not drawn),,"inconclusive: 50.1 µM [inhibitor, partial curve, poor fit]",
O=C(C[C@@H]1CCNC[C@@H]1Cc1cc(-c2ccc(F)cc2)on1)NCc1ccc2c(c1)OCO2,,"inconclusive: 79.4 µM [inhibitor, partial curve]",
COc1ccc(C(=O)NCc2nnc3ccc(-c4ccc(Cl)cc4)nn23)c(C)c1,,"inconclusive: 89.1 µM [inhibitor, single point]",
COc1ccc(CC(=O)N2CCc3nc(C(C)C)nc(-c4ccc(OC)cc4)c3CC2)cc1,,"inconclusive: 56.2 µM [inhibitor, partial curve, poor fit]",
O=C(NC1CCCC1)C1CCCN(c2nccc(Nc3ccccc3F)n2)C1 (stereo not drawn),,"inconclusive: 44.7 µM [inhibitor, partial curve, poor fit]",
N#Cc1cccnc1N1CCCC(CO)(CCCc2ccccc2)C1 (stereo not drawn),,"inconclusive: 50.1 µM [inhibitor, partial curve, poor fit]",
CCC(=O)N1CCC(c2ncc(C)n2Cc2ccccc2)C1 (stereo not drawn),,"inconclusive: 89.1 µM [inhibitor, single point]",
c1cncc(-c2cc(-c3cccc4cc[nH]c34)cn3cncc23)c1,,"inconclusive: 17.8 µM [inhibitor, partial curve, poor fit]",
CCCOc1ccc(CNC(=O)[C@H]2CCC[C@H]2NC(=O)c2ccc(OC)cc2)cc1,,,inactive
COc1ccccc1Nc1ccnc(N2CCN(C(=O)Nc3ccccc3)CC2)n1,,"inconclusive: 56.2 µM [inhibitor, partial curve, poor fit]",
Cc1ccc(C2=NC3(CCN(C(=O)CCc4ccccc4)CC3)ON2)cc1,inactive: -24.2%,,
CCCS(=O)(=O)N1CCC(N2CC(OC)C23CCOCC3)CC1 (stereo not drawn),,"inconclusive: 100 µM [inhibitor, single point]",
O=C1CCN(C[C@@H](O)COCc2ccccc2)c2ccc(F)cc2CN1C1CCCC1,,"inconclusive: 56.2 µM [inhibitor, partial curve, poor fit]",
CN(C)CCN(C)C(=O)c1cc(-c2ccccc2F)cc2c1OCCN2Cc1cccnc1,,active: 79.4 µM,
COc1ccc(C(=O)NCc2nnc3ccc(-c4ccc(C)c(C)c4)nn23)c(OC)c1,,"inconclusive: 100 µM [inhibitor, single point]",
CC(C)=CCN1CCCC2(Cc3ccccc3CNC2=O)C1 (stereo not drawn),inactive: -13.2% [at 172 µM],,

SMILES,"activity change, negative = cytotoxicity",Potency,outcome
O=C1NC2(CCN(CC3CC3)CC2)COc2ccccc21,,"inconclusive: 70.8 µM [inhibitor, partial curve, poor fit]",
O=C(CNC(=O)c1ccc(-c2cnc3ccccc3c2)cc1)NCc1ccccc1Cl,,"inconclusive: 44.7 µM [inhibitor, partial curve, poor fit]",
CCNCc1ccc(-c2ccc(Cl)cc2)o1,,"inconclusive: 50.1 µM [inhibitor, partial curve, poor fit]",
CCc1noc(CC2CCOC3(CCN(S(=O)(=O)c4cc(F)ccc4F)CC3)C2)n1 (stereo not drawn),,"inconclusive: 79.4 µM [inhibitor, partial curve]",
COc1cncc(N2C[C@@H]3[C@H](C2)N(CCOc2ccccc2)C(=O)C(C)(C)[S+]3(=O)[O-])c1,,"inconclusive: 89.1 µM [inhibitor, single point]",
COCC1CN(C2CCC2)CC12CCN(C(=O)COc1ccc(F)cc1)CC2 (stereo not drawn),,"inconclusive: 56.2 µM [inhibitor, partial curve, poor fit]",
Cc1ccsc1C(=O)N1C[C@@H](Oc2cccnc2)C[C@@H]1C(=O)N1CCOCC1,,"inconclusive: 100 µM [inhibitor, single point]",
CN(Cc1ccc(CCN)cc1)Cc1cccc(-n2cccn2)c1,,"inconclusive: 50.1 µM [inhibitor, partial curve, poor fit]",
COc1ccc(C(=O)N2CCCC3(C2)NC(=O)N(Cc2cc(C)ccc2C)C3=O)cc1F (stereo not drawn),inactive: -9.46%,,
CC(C)CNC(=O)c1ccc2c(c1)C1(CCN(C)C1)CN2CC1CCOCC1 (stereo not drawn),,"inconclusive: 112 µM [inhibitor, partial curve, poor fit]",
CC1(C)C(=O)N(CCOc2ccccc2)[C@H]2CN(Cc3ccc4c(c3)CCO4)C[C@H]2[S+]1(=O)[O-],,"inconclusive: 56.2 µM [inhibitor, partial curve, poor fit]",
Cn1cccc1C(=O)N1CC(Oc2ccc(-c3nc(-c4ccccc4)no3)cc2)C1,,"inconclusive: 39.8 µM [inhibitor, partial curve]",
COC(=O)c1cn([C@H]2CO[C@H]3[C@@H]2OC[C@@H]3NCc2ccccc2)nn1,inactive: -0.368% [at 172 µM],,
COc1ccc(C2(C(=O)N3CCCC(c4nc(-c5cccnc5)no4)CCNC(=O)CC3)CC2)cc1 (stereo not drawn),inactive: -23.1%,,
Cc1cc(C[C@@H]2COC[C@@H]2NC(=O)CCCc2nc(-c3ccco3)no2)on1,,,inactive
COc1ccc(-c2noc(-c3cccn3CC(=O)Nc3cccc(Cl)c3C)n2)cc1F,inactive: -0.624%,,
Cc1cccc(C)c1Oc1ncccc1CNC(=O)c1[nH]ncc1Cl,,"inconclusive: 44.7 µM [inhibitor, partial curve, poor fit]",
COCc1nc(-c2ccc(OC3CN(S(=O)(=O)c4ccccc4C)C3)cc2)no1,,active: 14.1 µM,
COc1ccc(-c2cc(C[C@@H]3C[C@H](NCc4ccncc4)C3(C)C)no2)cc1,,"inconclusive: 17.8 µM [inhibitor, full curve, poor fit]",
CC[C@@]1(C(=O)O)C[C@H](C(=O)NC(CO)CO)[C@H](c2ccc(F)cc2)N1C,,"inconclusive: 79.4 µM [inhibitor, partial curve, poor fit]",
Cc1ccc(C(=O)N2CCC(c3n[nH]c(=O)n3Cc3ccc(F)cc3)CC2)cc1C,,"inconclusive: 89.1 µM [inhibitor, single point]",
